Reference: the supplement of paper PMC3334620
Over roughly 33,000 sequences, “E-score (-0.5 to 0.5)” has its median near -0.017; the highest 2% begin near 0.3. Some of the results follow.

target: T1, Sut1 (UniProt P53032); assay: PBM E-score (8-mer binding enrichment) (E-score (-0.5 to 0.5)); higher = stronger / more preferred TF binding; most listed sequences are background and not binding sites; conditions: protein concentration: 200 nM; construct: GST-full length
T1 sequence: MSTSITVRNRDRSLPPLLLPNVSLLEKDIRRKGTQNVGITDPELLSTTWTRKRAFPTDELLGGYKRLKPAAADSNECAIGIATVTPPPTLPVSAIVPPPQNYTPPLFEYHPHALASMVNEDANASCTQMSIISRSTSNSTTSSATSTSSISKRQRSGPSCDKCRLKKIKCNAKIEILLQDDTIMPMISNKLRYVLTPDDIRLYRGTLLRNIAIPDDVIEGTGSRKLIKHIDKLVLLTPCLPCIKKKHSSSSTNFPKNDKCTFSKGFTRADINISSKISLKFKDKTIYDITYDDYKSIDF
Procedure, shortened: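 Using PURExpress in vitro transcription/translation, GST-tagged yeast transcription factors were made in full-length or DNA-binding-domain form. These were applied at about 100-200 nM to double-stranded universal all-10-mer Agilent arrays, and bound protein was detected with fluorescent anti-GST. Scans were normalised with masliner before the Universal PBM Analysis Suite assigned E-scores to ungapped eight-base words pooled with their reverse complements.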

Row | Sequence | PBM E-score
1 | CGCATCGA | -0.0419
2 | AACACCTC | -0.197
3 | CTCGATGA | 0.106
4 | GGTACAAA | -0.0226
5 | AATTGCCA | -0.0246
6 | ATTGTCCG | 0.359
7 | CCATAGCG | -0.183
8 | AAGGGCTG | -0.112
9 | CCGATATC | 0.17
10 | GAAGATGC | -0.191
11 | ACGCGGTG | -0.243
12 | AATACAAA | 0.348
13 | CAGACAGG | -0.205
14 | AGATTGGA | 0.118
15 | CCTATACC | -0.222
16 | GGCGATCA | -0.151
17 | CGCCAAAC | 0.0669
18 | GGAGGGAA | -0.105
19 | GAACCTAA | -0.078
20 | CAGGCCTC | -0.459
21 | GCTCGACA | -0.207
22 | CGAAACAC | 0.0972
23 | GACTTCCC | -0.111
24 | AACAAGGC | -0.221
25 | CACGATTC | 0.0606

Row | Sequence | PBM E-score
26 | TATTCCGA | 0.321
27 | AACTTGCT | 0.0522
28 | CGCATAAC | 0.108
29 | ATTACGTC | -0.0174
30 | TACTGCAA | -0.00385
31 | ACCTGGAG | 0.0444
32 | TCCAGCCA | -0.196
33 | ACCCTTGG | -0.289
34 | AGCAAGGC | -0.251
35 | CCAATCGC | 0.0346
36 | TACAGTGA | 0.0108
37 | TGCAGGCA | -0.194
38 | GGCATAAC | 0.0428
39 | AACATGGG | -0.00269
40 | CTGTCGGA | 0.265
41 | AAATGCAT | 0.181
42 | ATGACAGG | -0.167
43 | ACACGTGG | -0.125
44 | AGATGCTA | 0.15
45 | ACAAGTCA | -0.118
46 | CCGTCTCG | -0.14
47 | GTGCCGGA | 0.259
48 | CTAGAGGC | -0.201
49 | CGCTTTTA | 0.152
50 | AGTGACGC | -0.13

Row | Sequence | PBM E-score
51 | AATATGAT | 0.23
52 | GTTCCTGA | -0.202
53 | ATCACGGC | 0.0173
54 | AGTGCAGC | -0.194
55 | ACGATCGA | 0.00621
56 | GCTTAACC | -0.0732
57 | AACCACTA | 0.0415
58 | GAGTAAGA | 0.165
59 | GGACGGGA | -0.321
60 | CACGCGCC | -0.0772
61 | CGGTGTAA | 0.034
62 | AAAGTATT | 0.205
63 | GGTATAGA | -0.0386
64 | ATTCGATC | 0.0633
65 | GACAGGCA | -0.149
66 | ACTGAAGT | 0.116
67 | GTGGGTAA | -0.115
68 | TAGGCCAA | -0.00442
69 | ATCATAAG | 0.183
70 | AGCCCCGA | 0.0858
71 | GAGCAGGC | -0.287
72 | GTTGGGAA | -0.0455
73 | GAACAGAC | 0.0707
74 | AGCCGGGC | -0.143
75 | GGGATATA | 0.141

Row | Sequence | PBM E-score
76 | CGCTCAAC | -0.0527
77 | AGCAGGAT | -0.0517
78 | ACCCCCGC | -0.0707
79 | ACATTCGA | 0.167
80 | ATAATAAT | 0.295
81 | GGCATTAA | -0.056
82 | GGCTGCAC | -0.166
83 | GATGCTTA | -0.0356
84 | AGTCAACC | -0.141
85 | GCGCAGAA | -0.0121
86 | AAGTATCT | 0.0258
87 | ATGTTTAC | 0.0198
88 | CACGTCAG | -0.292
89 | ATAACTAA | 0.168
90 | ACTGGTCC | -0.167
91 | CGTAGGAG | -0.126
92 | GGAGGTGA | 0.0437
93 | TCCATCAA | 0.109
94 | AAACCTTG | -0.0351
95 | CATGTCTA | -0.118
96 | AGAAGTCG | -0.0129
97 | GTGGGCTA | -0.0686
98 | CCCACCGG | 0.133
99 | GTGGATGA | -0.186
100 | ACATGCAT | -0.0173

Row | Sequence | PBM E-score
101 | AAACAATG | 0.121
102 | AATAAATG | 0.179
103 | CGCCTGTA | -0.191
104 | ATCCGGAG | 0.414
105 | CGGGCTGA | -0.248
106 | AGACTTAA | -0.137
107 | AATCTTAA | 0.037
108 | CGGCGAAA | 0.0849
109 | AGAAATAA | 0.28
110 | GCCATAGA | -0.242
111 | AATGGTGA | -0.00114
112 | TACGCTGA | 0.14
113 | ACAGGAGT | 0.0194
114 | AGCACGGC | -0.102
115 | ACTTAGAA | 0.0411
116 | ATCCAATC | 0.00305
117 | GAGTCCCC | -0.188
118 | ACTTTTAC | 0.291
119 | CAGCCTGA | -0.275
120 | CCCATAAA | -0.0507
121 | TTATGGAA | 0.0859
122 | GTCAGAGA | -0.143
123 | ATGCAAAC | -0.084
124 | ATTGACGA | 0.0902
125 | CTTCGAAA | 0.00258

Row | Sequence | PBM E-score
126 | AAGTGAGG | -0.098
127 | ATGACTCA | 0.00053
128 | AGTGGCAC | -0.256
129 | CGGTAACC | -0.0833
130 | ACCGCTCC | -0.16
131 | ACAGTCAT | -0.239
132 | AACAGTCA | -0.138
133 | ATGAAGAG | 0.0879
134 | GTTCAAAC | 0.232
135 | TAAAAGAA | 0.166
136 | TGGTAGAA | -0.0199
137 | CAGGCGGG | -0.281
138 | CCCTACCG | -0.233
139 | CATACTGC | -0.0947
140 | CAAGAATA | 0.171
141 | ATCTACGC | 0.184
142 | GATCCGTA | -0.02
143 | CCTTGAGC | -0.0674
144 | ATGGAAGG | -0.171
145 | TGCACACA | -0.0331
146 | CTTCGATC | -0.125
147 | CATGGCCG | 0.0218
148 | CACAACGG | -0.214
149 | AAGAACAA | 0.238
150 | GGAGAGAA | 0.127

Row | Sequence | PBM E-score
151 | AAACAGGC | -0.143
152 | ATGGTACC | -0.0626
153 | AAGCCGTC | -0.0505
154 | GAACCTGC | -0.0908
155 | AGATTTAC | 0.216
156 | ACTGTCAT | 0.0632
157 | CTTTACCA | 0.0254
158 | CCGTGCCG | -0.0966
159 | CCACGAAG | -0.204
160 | ATCCGAGC | 0.0537
161 | CACGCCAG | -0.277
162 | AGACTAAA | 0.169
163 | CGTACAAA | 0.0952
164 | AGAATGTG | -0.174
165 | CCTGCCCG | -0.366
166 | GTGAGATA | 0.0859
167 | GGTGTTTA | 0.0773
168 | GAGCAAGA | -0.016
169 | CAGCCTCG | -0.21
170 | GTTCGGGA | 0.14
171 | CCGAGAGG | -0.0135
172 | CAGAAGAG | -0.331
173 | ACTATCTA | 0.155
174 | ATTCCGTG | 0.273
175 | GAGAAGAC | -0.123

Row | Sequence | PBM E-score
176 | AGGAAGAT | 0.143
177 | AAATTTGT | 0.27
178 | CCGTCGCG | -0.143
179 | TCAGGCGA | -0.166
180 | ATTAGTGC | 0.231
181 | GCTGGCAA | -0.129
182 | GAACAATA | 0.0829
183 | AATAGGGA | -0.142
184 | CACAGCGG | -0.217
185 | AGGAGTCG | -0.0901
186 | GCGACTGA | -0.0635
187 | GTGTTAGA | 0.109
188 | AAATCTAG | 0.00795
189 | ATGCCAAC | 0.0406
190 | CAACGATA | 0.0729
191 | CAGCACAG | -0.0827
192 | AGATCCGC | 0.00517
193 | ATTATAAC | 0.0928
194 | CTGGGCCA | -0.256
195 | CCATGCCC | -0.326
196 | CTCACGCA | 0.00102
197 | CCTGGATC | -0.26
198 | CTGCGCAG | -0.112
199 | ATCTTCTC | 0.167
200 | CGAACCTA | 0.12

Row | Sequence | PBM E-score
201 | ACCCGCAA | -0.197
202 | ACTTGTTA | 0.16
203 | CGTACAAC | 0.068
204 | ATGCACGC | 0.00659
205 | CAAGAAAC | 0.215
206 | ACATCAGT | 0.00838
207 | CGGTGTTA | 0.163
208 | ATGCGGGC | -0.135
209 | CCCCCCGA | -0.258
210 | ATGGTCCG | 0.203
211 | ACATTTCG | 0.171
212 | GTCCTGCA | -0.155
213 | AATAAACT | 0.221
214 | GACCTATC | -0.0265
215 | GCCCTAGA | -0.103
216 | CATGAGCG | -0.278
217 | GAAAGTTA | 0.149
218 | AAGCACGC | -0.122
219 | ATGAGTAG | 0.161
